The values below come from PMC9911399, “Two distinct binding modes provide the RNA-binding protein RbFox with extraordinary sequence specificity”.

Where a chain is given by its changes, count along the chain named. This is one part of the list.

Sequences and labels used below:
T1: RBFOX1 RRM (Homo sapiens, UniProt Q9NWB1 109-208)
T1 sequence: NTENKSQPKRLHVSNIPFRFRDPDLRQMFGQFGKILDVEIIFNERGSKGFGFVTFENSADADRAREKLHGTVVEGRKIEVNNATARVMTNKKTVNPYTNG

B1: UUAAGCU (DNA:RNA)
RNA: GGGAGACCGGAAUUCAGAUUGUCCUUAAGCUUUAAAUCCCGUCGUAGCCACCA
DNA 1: CAATCTGAATTCCGGTCTCCC
DNA 2: TGGTGGCTACGACGGGATT
B2: ACUCUCA (DNA:RNA)
RNA: B1 RNA with U25A, U26C, A27U, A28C, G29U, U31A
DNA 1: CAATCTGAATTCCGGTCTCCC
DNA 2: TGGTGGCTACGACGGGATT
B3: AGCUGGG (DNA:RNA)
RNA: B1 RNA with U25A, U26G, A27C, A28U, C30G, U31G
DNA 1: CAATCTGAATTCCGGTCTCCC
DNA 2: TGGTGGCTACGACGGGATT
B4: UAUCCGA (DNA:RNA)
RNA: B1 RNA with U26A, A27U, A28C, G29C, C30G, U31A
DNA 1: CAATCTGAATTCCGGTCTCCC
DNA 2: TGGTGGCTACGACGGGATT
B5: CUGUGCA (DNA:RNA)
RNA: B1 RNA with U25C, A27G, A28U, U31A
DNA 1: CAATCTGAATTCCGGTCTCCC
DNA 2: TGGTGGCTACGACGGGATT
B6: CAGUGUU (DNA:RNA)
RNA: B1 RNA with U25C, U26A, A27G, A28U, C30U
DNA 1: CAATCTGAATTCCGGTCTCCC
DNA 2: TGGTGGCTACGACGGGATT
B7: UGCCCUA (DNA:RNA)
RNA: B1 RNA with U26G, A27C, A28C, G29C, C30U, U31A
DNA 1: CAATCTGAATTCCGGTCTCCC
DNA 2: TGGTGGCTACGACGGGATT
B8: UUGCCUU (DNA:RNA)
RNA: B1 RNA with A27G, A28C, G29C, C30U
DNA 1: CAATCTGAATTCCGGTCTCCC
DNA 2: TGGTGGCTACGACGGGATT
B9: GACCCGA (DNA:RNA)
RNA: GGGAGACCGGAAUUCAGAUUGUCCGACCCGAUUAAAUCCCGUCGUAGCCACCA
DNA 1: CAATCTGAATTCCGGTCTCCC
DNA 2: TGGTGGCTACGACGGGATT
B10: AAUCUAG (DNA:RNA)
RNA: B9 RNA with G25A, C27U, C29U, G30A, A31G
DNA 1: CAATCTGAATTCCGGTCTCCC
DNA 2: TGGTGGCTACGACGGGATT
B11: GGACUAC (DNA:RNA)
RNA: B9 RNA with A26G, C27A, C29U, G30A, A31C
DNA 1: CAATCTGAATTCCGGTCTCCC
DNA 2: TGGTGGCTACGACGGGATT
B12: AGUCUUU (DNA:RNA)
RNA: B9 RNA with G25A, A26G, C27U, C29U, G30U, A31U
DNA 1: CAATCTGAATTCCGGTCTCCC
DNA 2: TGGTGGCTACGACGGGATT
B13: CGGCGAU (DNA:RNA)
RNA: B1 RNA with U25C, U26G, A27G, A28C, C30A
DNA 1: CAATCTGAATTCCGGTCTCCC
DNA 2: TGGTGGCTACGACGGGATT
B14: UCUAGUC (DNA:RNA)
RNA: B1 RNA with U26C, A27U, C30U, U31C
DNA 1: CAATCTGAATTCCGGTCTCCC
DNA 2: TGGTGGCTACGACGGGATT
B15: AGGAUUC (DNA:RNA)
RNA: B1 RNA with U25A, U26G, A27G, G29U, C30U, U31C
DNA 1: CAATCTGAATTCCGGTCTCCC
DNA 2: TGGTGGCTACGACGGGATT
B16: AUUGGAA (DNA:RNA)
RNA: B1 RNA with U25A, A27U, A28G, C30A, U31A
DNA 1: CAATCTGAATTCCGGTCTCCC
DNA 2: TGGTGGCTACGACGGGATT
B17: UGACUCU (DNA:RNA)
RNA: B1 RNA with U26G, A28C, G29U
DNA 1: CAATCTGAATTCCGGTCTCCC
DNA 2: TGGTGGCTACGACGGGATT
B18: UAUAUUC (DNA:RNA)
RNA: B1 RNA with U26A, A27U, G29U, C30U, U31C
DNA 1: CAATCTGAATTCCGGTCTCCC
DNA 2: TGGTGGCTACGACGGGATT
B19: GGCUUUC (DNA:RNA)
RNA: B9 RNA with A26G, C28U, C29U, G30U, A31C
DNA 1: CAATCTGAATTCCGGTCTCCC
DNA 2: TGGTGGCTACGACGGGATT
B20: CUGUAGU (DNA:RNA)
RNA: B1 RNA with U25C, A27G, A28U, G29A, C30G
DNA 1: CAATCTGAATTCCGGTCTCCC
DNA 2: TGGTGGCTACGACGGGATT

In the assay the target is T1, RBFOX1 RRM. In words: EMSA; HiTS-Eq, 1 nM pool, 10 min; buffer printed only for the single-RNA assays: 10 mM Tris pH 7.5, 150 mM NaCl, 3.4 mM EDTA, 0.001% NP-40, 30 C. The conditions noted are these: tags: His6 N-terminal (pET28a); label: 5' 32P. An outline of the steps: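 Purified RbFox RRM, wild type or mutant, was incubated for 10 min in 50 µL with 1 nM of a 5′-radiolabelled RNA pool carrying 7 randomized nucleotides, whose flanks were annealed to DNA oligonucleotides, over a series of increasing protein concentrations. Unbound RNA was resolved on 8% native PAGE, cut out, reverse-transcribed, barcoded by PCR and sequenced on an Illumina HiSeq 2500. Relative association constants were derived from changes in read counts for each RNA species versus the control reaction and normalised to the cognate motif.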
On the technique in general: Mobility shift assays separate free from complexed probe on a gel.
Consider B1, for which the binding signal is 0.0118 KA relative to UGCAUGU.
As for B2, the binding signal was 0.000381 KA relative to UGCAUGU.
Turning to B3, the binding signal is 0.0111 KA relative to UGCAUGU.
For the molecule B4, the binding signal is 0.0109 KA relative to UGCAUGU.
With B5 the figure was 0.0239 KA relative to UGCAUGU; with B6, 0.0107 KA relative to UGCAUGU; with B7, 0.0106 KA relative to UGCAUGU.
Under B8 stands 0.0139 KA relative to UGCAUGU.
As to B9, the binding signal is 0.00835 KA relative to UGCAUGU.
With B10 the figure was 0.00429 KA relative to UGCAUGU; with B11, 0.0184 KA relative to UGCAUGU; with B12, 0.0108 KA relative to UGCAUGU.
With B13 the figure was 0.014 KA relative to UGCAUGU.
In the case of B14, the binding signal was 0.00964 KA relative to UGCAUGU.
With B15 the figure was 0.0164 KA relative to UGCAUGU; with B16, 0.00344 KA relative to UGCAUGU.
Consider B17, for which the binding signal was 0.0132 KA relative to UGCAUGU.
With B18 the figure was 0.00415 KA relative to UGCAUGU.
Regarding B19, the binding signal is 0.0152 KA relative to UGCAUGU.
Under B20 stands 0.011 KA relative to UGCAUGU.
